In all, about 410,000 compounds went through this assay and about 5,000 (1.2%) were called active. This list was built around the results that the source calls inconclusive (neither active nor inactive); the mix of calls is not that of the screen. Calls follow the shape of the dose curve; as a rule, active = well fitted inhibition curve with a large enough effect; inconclusive = small, poorly fitted or top-dose-only effect; inactive = no such curve, though single readings can be large or run the other way. Where the call is inconclusive, the potency comes from a doubtful curve fit.
Test: qHTS for Inhibitors of TGF-b; also: nearly all actives have a fitted effect of over 65% in size
Settings: HepG2 CAGA-GFP TGF-b/SMAD3 reporter, GFP fluorescence, 18 h, TGF-beta stimulated, 500 pg/mL final; series mostly up to 46.1 µM; activity, negative = inhibition: at the top concentration
Summary of the method: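 First, reporter cells (HEPG2 CAGA-GFP) rested 2 h at 37 degrees C. Next, compounds were pinned in and TGF-beta added to 500 pg/mL final. After 18 h, GFP was imaged per cell and summed per well.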
With `S=c1[nH]nc(C2CCCCC2)n1/N=C/C(Cl)=C\c1ccccc1` the Potency was inconclusive: 25.1 µM [inhibitor, single point]. For `Cc1ccc(CSc2ncc(Cl)c(C(=O)NCCc3ccc(S(N)(=O)=O)cc3)n2)cc1`, the Potency was inconclusive: 14.1 µM [inhibitor, single point]. In the case of `CCC(=O)N1CCN(c2cc3c(cc2F)c(=O)c(C(=O)O)cn3CC)CC1`, the “activity, negative = inhibition” value was inactive: 1.58%. For `CCN(c1cccc2ccccc12)S(=O)(=O)c1cccs1`, the Potency was inconclusive: 35.5 µM [inhibitor, single point]. For `CCOC(=O)C1CCN(C(=O)COC(=O)c2oc3ccccc3c2C)CC1`, the “activity, negative = inhibition” value was inactive: 5.63%. In the case of `CCn1c(C)cc(O)c(C(=O)Nc2cccc(Cl)c2)c1=O`, the “activity, negative = inhibition” value was inactive: 3.62%. In the case of `Fc1cccc(Cl)c1-c1nnc2ccc3ccccc3n12`, the “activity, negative = inhibition” value was inactive: -22.3%. With `CC(C)(C)n1ncc2c(=O)n(Cc3ccc(Cl)cc3Cl)cnc21` the “activity, negative = inhibition” value was inactive: 26.3%. For `COCCNC(=O)c1ccc(N2CC3CC(C2)c2cccc(=O)n2C3)c(NC(=O)c2ccccc2Br)c1` (configuration not stated), the “activity, negative = inhibition” value was inactive: -9.58%. In the case of `CCOCCCN1C(=O)CN(C2CCCCCC2)C(=O)C1c1ccc(OC(C)C)c(OC)c1` (configuration not stated), the “activity, negative = inhibition” value was inactive: 0.395%. In the case of `COc1cccc(CN2C(=O)C(C)N(C(=O)c3c(F)cccc3F)c3ccccc32)c1` (configuration not stated), the Potency was inconclusive: 35.5 µM [inhibitor, single point]. With `O=C(NNc1c(Cl)cc(Cl)cc1Cl)c1cccc([N+](=O)[O-])c1` the Potency was inconclusive: 22.4 µM [inhibitor, single point]. In the case of `CCOC(=O)c1sc2nc(CSc3ccccc3)nc(N3CCC(C(N)=O)CC3)c2c1C`, the Potency was inconclusive: 20 µM [inhibitor, single point]. In the case of `CCn1cc(Br)c(C(=O)Nc2ccc(Cl)cc2Cl)n1`, the “activity, negative = inhibition” value was inactive: 1.39%. In the case of `CC1(C(=O)NCCc2c[nH]c3ccccc23)CCN1CC1CCCCC1` (configuration not stated), the Potency was inconclusive: 22.4 µM [inhibitor, single point]. With `Cc1cccc(C)c1NC(=O)NN=C1CCCCC1` the “activity, negative = inhibition” value was inactive: 7.22%. For `COC(=O)c1[nH]c2ccc(Br)cc2c1NC(=O)C(C)N1CCN(C2CCCCC2)CC1` (configuration not stated), the Potency was inconclusive: 25.1 µM [inhibitor, single point]. With `CCOc1ccc(C2CC(c3ccc(OC)cc3)n3ncnc3N2)cc1` (configuration not stated) the Potency was inconclusive: 3.16 µM [inhibitor, partial curve]. With `O/C(=C\c1ccc2ccccc2n1)c1ccncc1` the “activity, negative = inhibition” value was inactive: -11.9%. For `CCc1cccc2c1NC1(CCCC1)CC2C` (configuration not stated), the “activity, negative = inhibition” value was inactive: 0.782%. With `Cc1ccc2nc(-c3cccc(Br)c3)c(Cc3ccccc3C(F)(F)F)n2c1` the Potency was inconclusive: 14.1 µM [inhibitor, single point]. For `C=CCNC(=O)C(=O)NN=C1CCN(C)CC1`, the Potency was inconclusive: 3.55 µM [inhibitor, single point]. In the case of `CCOc1ccc(NC(=O)CSc2nccn2Cc2ccco2)cc1`, the Potency was inconclusive: 5.62 µM [inhibitor, partial curve, poor fit]. In the case of `CCOc1ccc(C(=O)C2CCN(C(=O)c3ccc([N+](=O)[O-])cc3)CC2)cc1`, the Potency was inconclusive: 10 µM [inhibitor, partial curve, poor fit]. With `CN(C)C(=O)N1CCN(c2nc(-c3ccccc3)cs2)CC1` the “activity, negative = inhibition” value was inactive: -16.2%. In the case of `COc1ccc(Cn2c(SCc3ccc(C(=O)NC4CCCC4)cc3)nc3ccncc32)cc1`, the Potency was inconclusive: 14.1 µM [inhibitor, single point]. With `COc1ccc(CCn2c(=S)[nH]c3ccc(N4CCOCC4)cc3c2=O)cc1OC` the Potency was inconclusive: 2.82 µM [inhibitor, full curve, poor fit]. In the case of `CC(C)C1C(=O)N(Cc2cn(CCC3OCCO3)nn2)CCS(=O)(=O)N1Cc1ccc(-c2ccc(F)cc2)cc1` (configuration not stated), the Potency was inconclusive: 12.6 µM [inhibitor, partial curve, poor fit]. For `CCOC(=O)c1c(C)oc2ncnc(N3CCN(c4ccccc4OC)CC3)c12`, the “activity, negative = inhibition” value was inactive: 1.1%. For `O=C(Nc1cccc(S(=O)(=O)N2CCCCC2)c1)c1cc2ccccc2o1`, the Potency was inconclusive: 35.5 µM [inhibitor, single point]. In the case of `CC1CN(C2=NC(=O)/C(=C/c3ccncc3)S2)CC(C)O1` (configuration not stated), the “activity, negative = inhibition” value was inactive: 15.9%. For `O=C(C[C@H]1C[C@H](C(=O)N2CCCCC2)[C@@]2(CCc3ccccc3)c3[nH]c4ccc(Cl)cc4c3CCN2C1=O)NCCCn1ccnc1`, the Potency was inconclusive: 22.4 µM [inhibitor, single point]. In the case of `CCOC(=O)c1cc(-c2ccccc2)n(CCCC(=O)Nc2ccc(C(C)C)cc2)c1C`, the Potency was inconclusive: 8.91 µM [inhibitor, partial curve]. With `COC(=O)c1cccc(-n2c(CCC(=O)O)ccc2-c2ccc(OC)cc2)c1` the Potency was inconclusive: 17.8 µM [inhibitor, partial curve, poor fit]. For `COc1cccc(CNC(=O)CCc2cn(Cc3ccccc3Cl)c3ccccc23)c1`, the Potency was inconclusive: 11.2 µM [inhibitor, partial curve]. For `Cc1c(C)n2c(SCC(=O)N3CCCCC3)nnc2[nH]c1=O`, the “activity, negative = inhibition” value was inactive: 1.31%. For `Fc1ccccc1N=C1NN=C(c2ccccc2)CS1`, the Potency was inconclusive: 17.8 µM [inhibitor, single point]. In the case of `CCCCOc1ccc(S(=O)(=O)Nc2ccc(-c3ccc(N4CCCCCC4)nn3)cc2)cc1`, the “activity, negative = inhibition” value was inactive: 4.32%. In the case of `CCOC(=O)C1CCN(C(=O)C(C)N(c2ccc(Oc3ccccc3)cc2)S(C)(=O)=O)CC1` (configuration not stated), the Potency was inconclusive: 22.4 µM [inhibitor, single point]. In the case of `Nc1ccc(C(=O)OCC(=O)c2cccc([N+](=O)[O-])c2)cc1`, the Potency was inconclusive: 31.6 µM [inhibitor, single point]. In the case of `Cc1ccc(NC(=O)Cc2ccc(-n3c(C)nc4cccnc43)cc2)cc1C`, the Potency was inconclusive: 7.08 µM [inhibitor, full curve]. In the case of `COc1ccc(S(=O)(=O)Nc2ccc(C)cc2)cc1N(C)S(=O)(=O)c1ccc(Cl)cc1`, the Potency was inconclusive: 22.4 µM [inhibitor, single point]. With `O=C(O)c1ccc(NC(=O)c2cn(-c3ccccc3)nc2-c2ccc(Cl)cc2)cc1` the Potency was inconclusive: 35.5 µM [inhibitor, single point]. With `Cc1cccc[n+]1CC(=O)c1ccc([N+](=O)[O-])cc1` the Potency was inconclusive: 12.6 µM [inhibitor, single point]. For `CC1(Cc2cccc(C(F)(F)F)c2)C(=O)Nc2c(Cl)ccc(Cl)c21` (configuration not stated), the Potency was inconclusive: 22.4 µM [inhibitor, single point]. In the case of `CCc1nc2c(OCc3ccc(C(F)(F)F)cc3)cccn2c1N(C)C(=O)c1ccncc1`, the Potency was inconclusive: 31.6 µM [inhibitor, single point]. With `CCc1ccc(C(=O)c2cn(CC(=O)Nc3ccc(F)cc3)c3ccc(OC)cc3c2=O)cc1` the Potency was inconclusive: 15.8 µM [inhibitor, single point]. For `O=C1CN(C(=O)Cc2ccc(F)cc2)C(c2ccccc2)c2cc(Cl)ccc2N1` (configuration not stated), the Potency was inconclusive: 25.1 µM [inhibitor, single point]. In the case of `COC(=O)C1=C(Nc2ccccc2NS(=O)(=O)c2ccc(C(F)(F)F)cc2Cl)CSC1`, the Potency was inconclusive: 35.5 µM [inhibitor, single point]. For `COc1ccc(NC(=O)Cn2c(=O)n(C(C)C)c(=O)c3oc4ccccc4c32)cc1Cl`, the Potency was inconclusive: 10 µM [inhibitor, partial curve]. With `O=C(COC(=O)c1ccc2c(c1)S(=O)(=O)c1ccccc1C2=O)NC1CC1` the “activity, negative = inhibition” value was inactive: -2.31%. In the case of `CCOc1ccccc1NC(=S)N(Cc1cc2ccc(C)cc2[nH]c1=O)CC1CCCN1CC` (configuration not stated), the Potency was inconclusive: 35.5 µM [inhibitor, single point]. With `Cc1ccccc1NC(=O)CSc1nc(-c2ccccc2C)nc2cc(=O)[nH]n12` the Potency was active: 3.55 µM. For `CCCC(=O)Nc1nc(C)c(-c2csc(Nc3ccccc3C)n2)s1`, the “activity, negative = inhibition” value was inactive: 5.11%. With `COc1ccccc1N(CC(=O)NCCSCc1ccccc1)S(=O)(=O)c1ccc(C)cc1` the Potency was inconclusive: 10 µM [inhibitor, partial curve, poor fit]. With `CCOc1ccc(NC(=O)N2CCN(S(=O)(=O)c3ccc4c(ccn4C)c3)CC2)cc1` the “activity, negative = inhibition” value was inactive: 0.84%. For `Cc1cccc(-n2c(N)cc(=O)nc2SCC(=O)Nc2nnc(C)s2)c1`, the Potency was inconclusive: 6.31 µM [inhibitor, single point]. For `CCc1ccccc1NC(=O)c1ccc(CN2CCC(Cc3ccccc3)CC2)cc1`, the Potency was inconclusive: 25.1 µM [inhibitor, single point]. For `Cc1cc(C)cc(N2C(=O)C=CC2=O)c1`, the Potency was inconclusive: 28.2 µM [inhibitor, single point]. In the case of `CCCN1CCN(CCNC(=O)Nc2ccc(OC)cc2OC)CC1`, the Potency was inconclusive: 0.1 µM [inhibitor, full curve, poor fit]. For `O=C1N(CN2C(=O)C3(OCCO3)c3ccccc32)c2ccccc2C12OCCO2`, the Potency was inconclusive: 0.1 µM [inhibitor, full curve, poor fit]. With `O=C(CC1C(=O)N(c2ccccc2)C(=O)N1CCC1=CCCCC1)Nc1ccc(F)cc1` (configuration not stated) the Potency was active: 11.2 µM. For `CCOC(=O)CNC(=O)C1CCCN(c2ncccn2)C1` (configuration not stated), the “activity, negative = inhibition” value was inactive: 2.09%. In the case of `Cc1ccc(OCCOC(=O)c2cc(S(=O)(=O)N3CCCCC3)ccc2N2CCOCC2)cc1`, the Potency was inconclusive: 10 µM [inhibitor, partial curve, poor fit]. In the case of `Cc1ccc(S(=O)(=O)NCC(c2ccc(N(C)C)cc2)N2CCOCC2)cc1` (configuration not stated), the Potency was inconclusive: 3.55 µM [inhibitor, single point]. In the case of `COc1ccc(C(=O)NCC(C)(C)SCc2c(C)cc(C)cc2C)cc1`, the Potency was inconclusive: 12.6 µM [inhibitor, single point]. In the case of `COc1cccc(C(=O)/C=C/Nc2cc(C)ccc2O)c1`, the Potency was inconclusive: 17.8 µM [inhibitor, single point].

From PubChem BioAssay AID588855 (National Center for Advancing Translational Sciences (NCATS), 2011)
% is scaled to controls: 0 for no effect and ±100 for the full control effect; potency is read from the fitted curve at half-maximal effect; tags tell the direction and shape of the fitted curve.
